Results as given in FireProtDB (doi:10.1016/j.bpc.2007.12.006).

Conditions: Gallus gallus, pH 2, CD, KCl-HCl 0.1 M, reversible: Yes

Lysozyme C wild type (sequence left out)
unfolding free energy (25 °C, Urea): 4.19 kcal/mol
heat capacity change of unfolding (Thermal): 2.71 kcal/mol/K
